# Data published in PubChem BioAssay AID1461 (National Center for Advancing Translational Sciences (NCATS), 2008).
# The whole screen tested about 220,000 compounds, of which about 2,300 (1%) were called active. The shares of active, inactive and inconclusive entries below differ from those in the screen. The call rests on the fitted dose curve; in most records, active means well fitted inhibition curve with a large enough effect; inconclusive means small, poorly fitted or top-dose-only effect, or effect the other way; inactive means no such curve, though single readings can be large or run the other way. Potencies of inconclusive entries are left out as doubtful fits.
# Target: Neuropeptide S receptor (Homo sapiens) (UniProt Q6W5P4)
# Assay: qHTS Assay for Antagonists of the Neuropeptide S Receptor: cAMP Signal Transduction; further: nearly all actives have a fitted effect of over 50% in size
# Conditions: CHO-NPSR cells, cAMP TR-FRET, antagonist mode; activity change, negative = inhibition: at 38.3 µM (top of the series) unless noted
# On the % scale 0 is the no-effect control and ±100 the full control effect; potency means the concentration at half of the fitted maximal effect; tags describe the fitted curve by direction and shape.
# UniProt Q6W5P4, sequence (Q6W5P4 whole entry, looked up): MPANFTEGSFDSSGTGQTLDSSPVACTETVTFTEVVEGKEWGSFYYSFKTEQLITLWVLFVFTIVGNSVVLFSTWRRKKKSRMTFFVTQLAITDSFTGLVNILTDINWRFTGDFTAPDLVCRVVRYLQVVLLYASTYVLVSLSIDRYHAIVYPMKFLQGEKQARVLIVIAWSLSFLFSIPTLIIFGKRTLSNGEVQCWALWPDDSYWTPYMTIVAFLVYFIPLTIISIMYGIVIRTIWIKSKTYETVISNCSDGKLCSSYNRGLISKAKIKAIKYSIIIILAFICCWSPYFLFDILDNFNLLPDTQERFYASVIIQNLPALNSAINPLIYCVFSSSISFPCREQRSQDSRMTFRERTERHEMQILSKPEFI
Structure (SMILES),Potency,"activity change, negative = inhibition"
CC(=O)c1ccc(NC(=O)C2CCN(S(=O)(=O)c3cccs3)CC2)cc1,inactive,–
Cc1ccc(C(=O)NC(=S)Nc2cc(-c3nc4ccccc4s3)ccc2C)cc1,"inconclusive [inhibitor, single point]",–
COc1ccc(N(Cc2ccccc2)C(=O)CSc2nnc(Cn3nnc4ccccc43)o2)cc1,inactive,–
O=C(C1=C[C@H](c2ccc3c(c2)OCO3)C[C@H](OCc2ccc(CO)cc2)O1)N1CCN(Cc2ccc3c(c2)OCO3)CC1,"inconclusive [activator, partial curve]",–
COC(=O)c1c(NC(=O)CSc2nnc(-c3ccco3)n2Cc2ccccc2)sc(C)c1C,"inconclusive [inhibitor, single point]",–
C=CCNc1nc(-c2ccc(Cl)cc2)cs1,inactive,–
COC(=O)c1sccc1NC(=O)CC1C(=O)NCCN1C(=O)c1c(F)cccc1Cl (configuration not stated),–,inactive: 6.74% [at 7.67 µM]
O=C(O)/C=C\C(=O)Nc1cccc(C(=O)Nc2cccc(O)c2)c1,inactive,–
CN(CC(O)COc1c(F)cc(Br)cc1F)C1CCCCC1 (configuration not stated),"inconclusive [inhibitor, single point]",–
CCCO/N=C1/C(=O)N(c2ccccc2)c2ccccc21,"inconclusive [inhibitor, single point]",–
CCN(CC)C(=O)CN(c1cc2c(cc1OC)oc1ccccc12)S(=O)(=O)c1ccccc1,"inconclusive [inhibitor, partial curve, poor fit]",–
Cc1cccc(-n2c(-c3ccoc3C)n[nH]c2=S)c1,inactive,–
CC(C)(C)c1cc(C(=O)NCc2cc(F)cc3c2OCOC3)n(Cc2ccccc2)n1,"inconclusive [activator, partial curve]",–
O=c1[nH]cnc2sc3c(c12)CCC3,"inconclusive [activator, single point]",–
COc1ccc(/C(C)=N/Nc2nc3ccccc3nc2C)cc1OC,inactive,–
COc1ccc(C(C(=O)NC(C)(C)C)N(C(=O)CNC(=O)c2cccs2)c2ccc(C(C)C)cc2)cc1OC (configuration not stated),"inconclusive [inhibitor, single point]",–
O=C(NC1CCCCC1)C(c1ccc2ncccc2c1)N(Cc1ccco1)C(=O)c1ccc2c(c1)OCCO2 (configuration not stated),"inconclusive [inhibitor, partial curve]",–
COC(=O)c1ccc(S(=O)(=O)N(C2CCCCC2)C2CCCCC2)n1C,"inconclusive [activator, single point]",–
O=C(CCC1CCCN(C(=O)Cc2cccc(F)c2)C1)N1CCN(c2ccccn2)CC1 (configuration not stated),inactive,–
CCN(CC)CCn1c(=N)n(CC(=O)c2ccc(Br)s2)c2ccccc21,"inconclusive [inhibitor, single point]",–
CC(=N\O)/C(CN(C)C)=N/O,"inconclusive [inhibitor, full curve, poor fit]",–

Structure (SMILES),Potency,"activity change, negative = inhibition"
CCOC(=O)c1c(C)[nH]c(C(=O)COC(=O)CCC(=O)c2ccc3c(c2)OCCO3)c1C,"inconclusive [inhibitor, single point]",–
C=CCSc1nnc(CSc2nc3sc4c(c3c(=O)[nH]2)CCCC4)n1-c1ccccc1,"inconclusive [inhibitor, partial curve]",–
CC(C)CCOc1ccc(Cl)cc1CN1CCOCC1,"inconclusive [inhibitor, single point]",–
COc1ccccc1N(Cc1cc(=O)[nH]c2ccccc12)C(=O)c1cccc([N+](=O)[O-])c1,"inconclusive [inhibitor, single point]",–
COC(=O)[C@@H]1CC[C@H](C)[C@@H](c2ccc(C)cc2)N1C(=O)c1ccc(/C=N/O[C@@H](C)CN2CCCCc3nc(C)c(C)cc32)cc1,active: 10 µM,–
Cc1cc(/C=N/NC(=O)c2cccs2)c(C)n1-c1ccccc1,inactive,–
Cc1nnc(SCC(=O)NC(=O)NC(C)(C)C)n1N,"inconclusive [inhibitor, single point]",–
Cc1cc2nnc(SCC(=O)OC(C)C)n2c2ccccc12,inactive,–
CNS(=O)(=O)c1ccc(N=Cc2c(C)[nH]n(-c3ccc(C)cc3C)c2=O)cc1,inactive,–
COc1ccc(-c2c(C(F)(F)F)[nH]n3c(=O)cc(-c4ccccc4)nc23)cc1,"inconclusive [inhibitor, single point]",–
COc1ccccc1-c1cc(C(=O)N2CCN(c3ccc(F)cc3)CC2)no1,"inconclusive [inhibitor, full curve, poor fit]",–
COCCCn1c(=NC(=O)c2ccccc2)c(C#N)cc2c(=O)n3cccc(C)c3nc21,"inconclusive [activator, partial curve]",–
COC(=O)CNC(=O)CN1C(=O)N(c2cccc(Cl)c2)C(N(O)C(=O)Nc2cccc(Cl)c2)C1(C)C (configuration not stated),"inconclusive [inhibitor, single point]",–
Cc1ccc(S/C=C\C(=O)c2ccccc2)cc1,active: 12.6 µM,–
COc1ccc(CN2CSC(=S)N(Cc3ccc(OC)cc3)C2)cc1,"inconclusive [activator, single point]",–
CCOC(=O)c1cccc(NC(=O)CN(c2ccc(C)cc2)S(=O)(=O)c2c(C)noc2C)c1,"inconclusive [inhibitor, partial curve]",–
COc1ccc(OCC(=O)N/N=C/C=C/c2ccccc2)cc1,inactive,–
CCC1(C)Cc2c(sc3c2c2ncnn2c2nnc(SCC(=O)NCc4ccco4)n32)CO1 (configuration not stated),"inconclusive [activator, single point]",–
CC(C)(C)NC(=S)NC(=O)C12CCC3CC(CC(C3)C1)C2,"inconclusive [inhibitor, single point]",–
CSc1nc(SCCO)c2sc3nc(-c4ccco4)c4c(c3c2n1)CC(C)(C)OC4,"inconclusive [inhibitor, partial curve, poor fit]",–
N#C/C(=C\c1c(Cl)cccc1Cl)c1nc2ccccc2[nH]1,"inconclusive [activator, single point]",–
